PubChem BioAssay (NCI)
“And” between values parts separate entries of the source, which are not always exact repeats. Identical values can stand only once.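 Tested at 5 concentrations; 48 h exposure; 96-well plates; endpoints linearly interpolated, else capped at highest concentration. Here, GI50 denotes the concentration required for 50% inhibition of growth. Definition used: TGI = concentration required for complete inhibition of growth.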

system: NCI-H322M lung; test: NCI tumour cell line growth inhibition, 48 h

Row | SMILES | TGI | GI50
1 | NC(=O)OCC(COc1ccc(Cl)cc1)OC(=O)c1cc([N+](=O)[O-])cc([N+](=O)[O-])c1 (centres undefined) | > 100 µM | 
2 | CCCCCCCCCCCCCCCCNc1ccc2c(c1)OCCOCCOCCOCCO2 | 15.3 µM | 
3 | CS(=O)(=O)N(CC(=O)O)Cc1ccccc1 | > 100 µM | 
4 | COc1cccc2cc(-c3nc(C4CCC(C(=O)O)CC4)n4ncnc(N)c34)[nH]c12 (centres undefined) | 6.38 µM and > 10 µM | 0.156 µM and 0.345 µM
5 | O=C1C=C(NCCc2cc(Cl)c(O)c(Cl)c2)C(=O)c2[nH]cnc21 | > 100 µM | 
6 | COc1cc2c(cc1O)-c1c(OC)c(O)cc3c1C(C2)N(C)CC3 (centres undefined) | > 100 µM | 
7 | CC1OC(n2cc(I)c(=O)[nH]c2=O)C=CC1=O (centres undefined) | 32.4 µM | 
8 | O=C(O)C1CCCCC1C(=O)Nc1nc2ccccc2[nH]1 (centres undefined) | > 100 µM | 
9 | CCCCCCCSCC1OC(n2cnc3c(N)ncnc32)C(O)C1O (centres undefined) | > 100 µM | 
10 | Clc1ccc2c(Cl)nc(-c3ccccc3)nc2c1 | > 100 µM | 
11 | CCC(C)C(NC(=O)c1c2ccccc2nc2ccccc12)C(=O)O (centres undefined) | > 100 µM | 
12 | CCOC(=O)/C(=C/c1ccc(Cl)cc1)N(CC)CC | > 100 µM | 
13 | NN/C(=N\S(=O)(=O)c1cccc2nsnc12)Nc1ccc(Cl)cc1 | > 100 µM | 
14 | COc1cc(C2C(C(=O)OCc3ccccc3)=C(C)NC(C)=C2C(=O)OCc2ccccc2)cc(OC)c1OC | > 100 µM | > 100 µM
15 | CN1CC(S(=O)(=O)c2ccccc2)CC(S(=O)(=O)c2ccccc2)C1c1ccccc1 (centres undefined) | 27.4 µM | 
16 | C=CCCCCn1c2ccccc2c2c(C)c3c[n+](C)ccc3c(C)c21 | 3.86 µM | 
17 | C(=C\c1nc2ccccc2s1)/c1ccc(N2CCOCC2)s1 | > 100 µM | > 100 µM
18 | O=C1C(Cl)=C(Nc2cccc(O)c2)C(=O)N1c1ccc(Cl)cc1Cl | 65.1 µM | 23 µM
19 | O=C1c2ccccc2-n2c1nc1cc(Cl)ccc1c2=O | > 100 µM | 
20 | CC(=O)OC1CC(C)c2c(Cl)ncnc21 (centres undefined) | > 100 µM | > 100 µM

Row | SMILES | TGI | GI50
21 | COc1ccc(/C(Cl)=C(\CNc2ccccn2)c2ccccc2)cc1OC | > 100 µM | 
22 | CCOC(=O)NC(C(C(=O)OCC)C(=O)OCC)(C(F)(F)F)C(F)(F)F | > 100 µM | 
23 | CC(=O)OC(C#N)CC(C)(C)/[N+]([O-])=[N+](\[O-])C(C)(C)CC(C#N)OC(C)=O (centres undefined) | > 100 µM | 
24 | CCOC(=O)NN(C(=O)OCC)C(C(=O)c1ccc(Cl)cc1)=C1NCCN1 | > 100 µM | 
25 | Cc1cc(O)c(O)c(Oc2cc(C)cc(O)c2O)c1 | > 100 µM | 
26 | CSC1CC2C(CC1(C)SC)C2(C)C (centres undefined) | > 100 µM | 
27 | Cc1ccc(C(=O)c2[nH]c(Nc3ccc(Cl)cc3)c(C(=S)Nc3ccccc3)c2N)cc1 | 27.7 µM | 
28 | CCN(CC)CCOCC1CCCN2CCCCC12 (centres undefined) | > 100 µM | 
29 | O=C1c2ccccc2CCC1(Br)Br | 28.8 µM | 14.6 µM
30 | COc1ccc(CCN2COc3ccc4ccc(=O)oc4c3C2)cc1OC | > 100 µM | 
31 | CC1C(=O)CC[C@@]2(C)C(=O)CCCC12O (some centres undefined) | > 100 µM | 
32 | CCc1cccc(CC)c1NC(=O)c1ccn2c1CCc1cnc(Nc3ccc(N4CCN(C)CC4)cc3OC)nc1-2 | 15.2 µM | 3.1 µM
33 | O=C1c2cscc2C(=O)c2c(OCc3ccccc3)ccc(OCc3ccccc3)c21 | > 100 µM | 
34 | Nc1ccc(-c2nc3ccccc3s2)cc1F | > 100 µM | 
35 | C/C=C/C=C\C(=O)C1c2cccc(O)c2C(=O)c2c(O)cc(C)cc21 (centres undefined) | 3.38 µM | 
36 | COc1ccc(C(=O)C(CC2C(=O)CC(C)(C)C(C(=O)C(=O)Nc3c(C)cccc3C)C2=O)c2ccc(OC)cc2)cc1 (centres undefined) | > 100 µM | 
37 | CN1CCN(CCCOc2ccc3nc(Nc4ccc(C(F)(F)F)c(Cl)c4)ccc3c2)CC1 | 3.41 µM | 1.69 µM
38 | N#CC1C(=O)NC2=C(CCOc3c2ccc2ccccc32)C1c1ccc(F)cc1 (centres undefined) | > 100 µM | 
39 | COC(=O)c1cc(NC(=O)CN(CCN(CC(=O)O)CC(=O)Nc2ccc(O)c(C(=O)OC)c2)CC(=O)O)ccc1O | > 100 µM | > 100 µM
40 | NCC(=O)NC(CO)C(=O)O (centres undefined) | > 100 µM | 

Row | SMILES | TGI | GI50
41 | CCCCC1=CC1(C#N)[N+](=O)[O-] (centres undefined) | > 100 µM | 
42 | CN/N=C(/CC(=O)c1sc(-n2nc(-c3ccccc3)cc2-c2ccccc2)nc1C)C(=O)Nc1ccc(Cl)c(Cl)c1 | > 100 µM | 
43 | COc1ccc2c([nH]c3cc(O)c(C)cc32)c1CC=C(C)C | > 25 µM | 10.6 µM
44 | CCOc1ccc(N=Nc2c(-c3ccccc3)nn(C(=O)CC(=O)Nc3cccc(C)c3)c2-c2ccccc2)cc1 | > 100 µM | 
45 | O=C(Nc1ccc(N2C(=O)CSC2c2cccs2)cc1)c1ccc(N2C(=O)CSC2c2cccs2)cc1 (centres undefined) | > 100 µM | 
46 | N#CC(C#N)=Cc1ccc(Oc2ccccc2)cc1 | > 100 µM | 
47 | O=C1Cc2c(-c3ccccc3)cc(-c3ccc4ccccc4c3)nc2-c2ccccc2N1 | > 100 µM | 
48 | CC(=O)Nc1ccc(S(=O)(=O)c2ccc(NC(C)=O)cc2)cc1 | > 100 µM | > 100 µM
49 | O=C1CCCC(=O)C1C(=O)c1ccc(C(F)(F)F)cc1[N+](=O)[O-] | > 100 µM | > 100 µM
50 | O=C1CSC(c2ccccc2[N+](=O)[O-])N1c1ccc(-n2c(-c3ccccc3)nc3ccccc3c2=O)cc1 (centres undefined) | > 100 µM | 
51 | CNc1ccc(C(=O)CC(O)CCC(C)C2OC(=O)CC(O)CC(=O)CC(O)CC(O)CC(O)CC(O)CC3(O)CC(O)C(C(=O)NCCc4ccccn4)C(CC(OC4OC(C)C(O)C(N)C4O)/C=C/C=C/C=C/C=C\C=C/C=C/C=C/C2C)O3)cc1 (centres undefined) | 0.759 µM | 0.188 µM
52 | COc1cc(S(=O)(=O)Nc2ccc(-c3csc(/N=C\C=C\c4ccccc4)n3)cc2)ccc1Cl | > 100 µM | 
53 | Cc1cc(=O)[nH]c(NN2C(Cl)C(=O)C2c2c(O)ccc3ccccc23)n1 (centres undefined) | > 100 µM | 
54 | CC(=O)O[C@H]1CC[C@@]2(C)C(=CC[C@H]3[C@@H]4C/C(=C\c5ccncc5)[C@H](OC(C)=O)[C@@]4(C)CC[C@@H]32)C1 | 35.7 µM | 
55 | Cc1ccc(Nc2cc(=O)[nH]c(=O)[nH]2)cc1CS | > 100 µM | 
56 | C[N+]1(CCCC[N+]2(C)CCCCCCC2)CCCCCCC1 | > 100 µM | 
57 | CNC(=O)OCc1cc2ccncc2c2c1[nH]c1ccccc12 | > 100 µM | 
58 | Nc1nc(NCC2(CO)CC(CCc3ccccc3)C2)cc(=O)[nH]1 (centres undefined) | > 100 µM | 
59 | CCN(CC)CCNc1ccc2ncn3c4c(OC)ccc(=O)c4c(O)c1c23 | > 100 µM | 
60 | Cc1ccc(C(CC(=O)c2ccccc2)C(C(=O)c2ccccc2)C(c2ccc(C)cc2)C2C(=O)NC(=S)NC2=O)cc1 (centres undefined) | > 50 µM | 44.1 µM
